Here are results for 91 compounds from PubChem BioAssay AID360 (National Center for Advancing Translational Sciences (NCATS), 2006).

The campaign covered roughly 48,000 compounds. About 550 (1.1%) were called active. Not shown: some 4% with an inconclusive outcome. No stated cut-off is given here; in the data, active means potency below about 15 µM; inconclusive means mostly about 16 µM to 33 µM; inactive means weaker than that. This is one part of the list.
Potency means the concentration at half of the fitted maximal effect.

UniProt P04062, sequence (P04062 whole entry, looked up): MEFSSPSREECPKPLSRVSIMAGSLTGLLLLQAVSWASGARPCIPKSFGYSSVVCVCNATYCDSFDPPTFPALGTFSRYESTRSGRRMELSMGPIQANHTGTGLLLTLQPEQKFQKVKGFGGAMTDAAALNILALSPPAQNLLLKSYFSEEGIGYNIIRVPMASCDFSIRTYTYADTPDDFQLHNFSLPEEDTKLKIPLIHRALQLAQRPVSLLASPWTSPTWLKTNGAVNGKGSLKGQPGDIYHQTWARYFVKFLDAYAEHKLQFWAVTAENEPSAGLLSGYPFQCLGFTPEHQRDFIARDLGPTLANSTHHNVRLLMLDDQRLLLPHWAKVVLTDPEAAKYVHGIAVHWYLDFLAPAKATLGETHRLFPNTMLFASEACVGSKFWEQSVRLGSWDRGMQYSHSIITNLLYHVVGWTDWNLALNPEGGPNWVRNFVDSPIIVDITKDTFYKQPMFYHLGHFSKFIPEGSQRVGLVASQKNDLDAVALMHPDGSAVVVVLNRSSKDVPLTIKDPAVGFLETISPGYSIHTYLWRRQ

The assay has as its target Lysosomal acid glucosylceramidase (Homo sapiens) (UniProt P04062). In words: Glucocerebrosidase.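 Further: the screen sought inhibitors.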 Conditions: purified enzyme, resorufin glucoside fluorescence (screen aimed at inhibitors), 20 min. Summed up:
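Normal human glucocerebrosidase (0.2 nM final) was assayed with resorufin β-D-glucopyranoside (30 uM final) in 50mM citric acid/KH2PO4, 10mM sodium taurocholate, 0.01% tween-20, pH 5.9. Compounds were titrated; fluorescence (Ex 548, Em 600) read after 20 min at RT.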
With `Cn1cnc2c(N3CCCCC3)nccc21`, the Potency is inactive: > 76.9 µM.
For the compound `Cc1ccc(C2CC(C(F)(F)F)n3nc(C(=O)NCc4ccco4)cc3N2)cc1` (stereo unspecified), the Potency is inactive: > 76.9 µM.
Then `CCOc1ccc(NC(=O)c2cccc3c2C(=O)N(Cc2cccnc2)C3)cc1`, with inactive: > 76.9 µM.
In the case of `COCCCN1C(=O)C(=O)/C(=C(/O)c2ccc(C)cc2)C1c1ccccc1` (stereo unspecified), the Potency was inactive: > 76.9 µM.
On to `CCOC(=O)Cc1csc(Nc2c(C)n(C)n(-c3ccccc3)c2=O)n1`, for which the Potency is inactive: > 76.9 µM.
With `Cc1cc(C)cc(-n2nnc(C(=O)NCc3ccccc3)c2N)c1` the figure was inactive: > 76.9 µM; with `CCOc1ccc(Nc2nc(C)cc(C)c2C#N)cc1`, inactive: > 76.9 µM.
Then `Cc1ccc(NC2=NC(c3ccccc3)n3c(nc(C)cc3=O)N2)cc1` (stereo unspecified), with inactive: > 76.9 µM.
With `O=C(CCN1C(=O)CSC1=O)Nc1ccccc1`, the Potency was inactive: > 76.9 µM.
With `C=CCc1c(C)nc(SC(C)C)[nH]c1=O` the figure was inactive: > 76.9 µM; with `Cc1nn(CC(=O)Nc2ccc(C(=O)N3CCCC3)cc2)c(=O)c2ccccc12`, inactive: > 76.9 µM; with `O=C(NC(NC1CCS(=O)(=O)C1)C(=O)c1ccccc1)c1ccc(Cl)cc1` (stereo unspecified), inactive: > 76.9 µM.
As for `Cc1cc(C)n(CNc2nc(C(F)(F)F)cs2)n1`, the Potency was inactive: > 76.9 µM.
Consider `COC(=O)CSc1nnc(CNS(=O)(=O)c2ccc(C)cc2)n1C`, for which the Potency is inactive: > 76.9 µM.
As to `COC(=O)c1cc(NC2c3ncccc3C(=O)N2Cc2ccccc2)cc(C(=O)OC)c1` (stereo unspecified), the Potency was inactive: > 76.9 µM.
With `COc1ccc(-c2nnc3ccc(SCC(=O)NCc4ccco4)nn23)cc1OC` the figure was inactive: > 76.9 µM.
With `CC(=O)c1cc(C)ccc1OC(=O)c1cccc2nc(C)oc12`, the Potency was inactive: > 76.9 µM.
On to `CSc1oc(-c2ccc(F)cc2)nc1S(=O)(=O)c1ccccc1`, for which the Potency is inactive: > 76.9 µM.
On to `CC(=O)c1cccc(NC(=O)N2CCCC2C(=O)Nc2cc(C)ccc2C)c1` (stereo unspecified), for which the Potency was inactive: > 76.9 µM.
In the case of `COc1ccc(Cl)cc1NC(=O)c1c(-c2ccccc2)noc1C`, the Potency was inactive: > 76.9 µM.
For `CCN1C(=O)/C(=C\N2CCN(c3ccccc3)CC2)SC1=S`, the Potency entry was “inactive”.
With `CCOC(=O)c1[nH]c2c(c1C)C(=O)CC(c1ccc(OC)c(OC)c1)C2` (stereo unspecified), the Potency is inactive: > 76.9 µM.
`CCN(CC)c1nc(Nc2ccccc2)nc(Oc2ccc(=O)n(C)n2)n1`: the Potency was inactive: > 76.9 µM.
Take `Cc1cccc(-c2c3c(=O)n(C)c(=O)n(C)c3cn2C(C)C)c1`: the Potency was inactive: > 76.9 µM.
For `Cn1c(=O)c(=O)n(C)c2cc(S(=O)(=O)N3CCN(c4cccc(C(F)(F)F)c4)CC3)ccc21`, the Potency is inactive: > 76.9 µM.
As for `Cc1ccc(Oc2cc(C)nc(-c3ccccc3O)n2)cc1`, the Potency was inactive: > 76.9 µM.
As to `CCN(C(=O)c1ccnc(C(C)(C)C)c1)c1ccccc1`, the Potency was inactive: > 76.9 µM.
Turning to `CCCCCCn1c(CN2CCCC(C)C2)nc2c1c(=O)n(C)c(=O)n2C` (stereo unspecified), the Potency was inactive: > 76.9 µM.
Then `CC(=O)N1c2c(cc(Br)cc2S(=O)(=O)N2CCN(c3ccccn3)CC2)CC1C` (stereo unspecified), with inactive: > 76.9 µM; and `NC(=O)COC(=O)c1ccc(S(=O)(=O)N2CCCCCC2)cc1`, with inactive: > 76.9 µM; and `Cc1cnc(NC(=O)C2CCCO2)s1` (stereo unspecified), with inactive: > 76.9 µM.
For the compound `CCCCN(C)CCCNC(=O)c1ccc(N2CCCC2=O)cc1`, the Potency is inactive: > 76.9 µM.
Consider `CCN(Cc1ccccc1)C(c1ccccn1)c1nnnn1C(C)(C)CC` (stereo unspecified), for which the Potency is inactive: > 76.9 µM.
In the case of `CCOc1ccc(C(=O)N(C)C2CCS(=O)(=O)C2)cc1` (stereo unspecified), the Potency is inactive: > 76.9 µM.
As to `CC(C)N(Cc1ccccc1)C(=O)COC(=O)c1ccc2c(c1)OCCO2`, the Potency is inactive: > 76.9 µM.
For `O=C(CSc1nnc(-c2ccco2)n1Cc1ccco1)N1CCOCC1`, the Potency is inactive: > 76.9 µM.
As for `CC(C)(C)n1nc2c(c1NC(=O)c1ccc(Br)o1)CS(=O)C2` (stereo unspecified), the Potency was inactive: > 76.9 µM.
Then `Cc1ccccc1OCC1Cn2c(nc3c2c(=O)[nH]c(=O)n3C)O1` (stereo unspecified), with inactive: > 76.9 µM; and `COc1ccc(C2=NOC(C(=O)NCc3ccc(F)cc3)C2)cc1OC` (stereo unspecified), with inactive: > 76.9 µM.
`N=c1n(Cc2ccccc2)c2ccccc2n1CC(O)c1ccccc1` (stereo unspecified): the Potency was inactive: > 76.9 µM.
With `COc1ccc(N2CC(C(=O)NCc3cccnc3)CC2=O)cc1` (stereo unspecified) the figure was inactive: > 76.9 µM; with `O=C(O)CCC(=O)N1CCN(c2ccccn2)CC1`, inactive: > 76.9 µM.
On to `Cc1cc(=O)n2nc(N3CCCC(C(=O)N4CCN(C)CC4)C3)sc2n1` (stereo unspecified), for which the Potency is inactive: > 76.9 µM.
As to `CCOC(=O)c1cnc(-n2nc(C)cc2C)nc1NCc1ccccc1`, the Potency was inactive: > 76.9 µM.
Consider `CCCOc1ccc(N2C(=O)CC(NCCCN3CCC(C(N)=O)CC3)C2=O)cc1` (stereo unspecified), for which the Potency is inactive: > 76.9 µM.
Consider `O=C(CN(C(=O)CNC(=O)c1ccco1)c1ccc2c(c1)OCO2)NC1CCCCC1`, for which the Potency was inactive: > 76.9 µM.
As for `COc1ccc(OC)c(NC(=O)c2ccc(S(=O)(=O)N3CCN(C)CC3)cc2)c1`, the Potency was inactive: > 76.9 µM.
With `CC1CCc2c(C(=O)NCC3CCCO3)csc2C1` (stereo unspecified) the figure was inactive: > 76.9 µM; with `COc1ccccc1Nc1nnc(SCC(=O)N2CCCC2=O)s1`, inactive: > 76.9 µM.
`N#CC(C(=O)O)=C1CCCC1`: the Potency was inactive: > 76.9 µM.
Then `Cc1ccc(-c2nnn(CC(=O)N(Cc3ccco3)C(C(=O)NC(C)(C)C)c3cccs3)n2)o1` (stereo unspecified), with inactive: > 76.9 µM; and `O=C(CN1CCN(c2ccccn2)CC1)NCc1cccs1`, with inactive: > 76.9 µM; and `O=C1c2ccccc2S(=O)(=O)N1CC1CC(c2ccccc2)=NO1` (stereo unspecified), with inactive: > 76.9 µM.
With `CCCCS(=O)(=O)N1CN(S(=O)(=O)CCCC)C2NC(=O)NC21` (stereo unspecified) the figure was inactive: > 76.9 µM.
On to `Cc1oc2c(CN3CCOCC3)c(O)ccc2c(=O)c1-c1ccc(Br)cc1`, for which the Potency was inactive: > 76.9 µM.
`O=C1c2ccccc2C(=O)N1C/C=C/c1ccccc1`: the Potency is inactive: > 76.9 µM.
Take `COCCCNC(=O)C1CCN(S(=O)(=O)N(CC(C)C)CC(C)C)CC1`: the Potency was inactive: > 76.9 µM.
For the compound `Cc1c(N=C/C=C/c2ccccc2)cnn1C`, the Potency is inactive: > 76.9 µM.
`CCOc1cc(C2/C(=C(\O)c3cc(C)ccc3C)C(=O)C(=O)N2CCN(C)C)ccc1O` (stereo unspecified): the Potency was inactive: > 76.9 µM.
With `Nc1nc2n(n1)C(c1ccco1)CC(c1ccc(Cl)cc1Cl)N2` (stereo unspecified), the Potency is inactive: > 76.9 µM.
Regarding `Cc1cccc(C)c1OCC(O)CN` (stereo unspecified), the Potency was inactive: > 76.9 µM.
Then `CCOCCCN(C(=O)Nc1ccc(CC)cc1)C1CCN(C(C)=O)CC1`, with inactive: > 76.9 µM.
Then `CCc1ccc2oc(=O)cc(CN3CCOCC3)c2c1`, with inactive: > 76.9 µM; and `CCn1c(SCC(=O)NC(C)(C)C)nc(O)cc1=O`, with inactive: > 76.9 µM.
`CC1CCCCC1NC(=O)CSc1nnnn1-c1ccccc1` (stereo unspecified): the Potency was inactive: > 76.9 µM.
`CN1C(=O)NC(NC(=O)c2cccs2)(C(F)(F)F)C1=O` (stereo unspecified): the Potency is inactive: > 76.9 µM.
Consider `COc1cc(OC)c(C2SCCN2S(=O)(=O)c2ccc(F)cc2)cc1OC` (stereo unspecified), for which the Potency is inactive: > 76.9 µM.
Then `Cn1c(C(=O)OCC(=O)NCc2ccco2)cc2sccc21`, with inactive: > 76.9 µM.
With `Cc1ccc(S(=O)(=O)NCc2ccco2)c(C)c1C` the figure was inactive: > 76.9 µM.
For `S=c1[nH]nc(-c2cccnc2)n1Cc1ccccc1`, the Potency was inactive: > 76.9 µM.
As to `Cc1oc(C)c2c(=O)ccc3c(c12)OC(N)=C(C#N)C3c1ccccc1` (stereo unspecified), the Potency is inactive: > 76.9 µM.
As for `O=C(O)C1C2C=CC(O2)C1C(=O)Nc1ccccc1C(F)(F)F` (stereo unspecified), the Potency is inactive: > 76.9 µM.
As to `O=C(C1CCC1)N1CCc2cc(S(=O)(=O)N3CCc4ccccc4C3)ccc21`, the Potency is inactive: > 76.9 µM.
Turning to `Cc1noc(C)c1S(=O)(=O)Nc1ccc(C(=O)NCCc2ccccc2)cc1`, the Potency was active: 1.62 µM.
On to `CC1CN(c2oc(COc3ccc(Cl)cc3Cl)nc2C#N)CC(C)O1` (stereo unspecified), for which the Potency was inactive: > 76.9 µM.
Then `CC(C)OC(=O)CSc1n[nH]c(-c2cccnc2)n1`, with inactive: > 76.9 µM; and `CCCc1nc2c(sc3nc4c(cc32)COC(C)(C)C4)c(=O)n1Cc1ccco1`, with inactive: > 76.9 µM; and `COc1ccc(/C=C/C(O)=C2/C(=O)N(C)C3(C)CC2c2ccccc2O3)cc1` (stereo unspecified), with inactive: > 76.9 µM.
Then `N#CC1=C(N)Oc2n[nH]c(-c3ccccc3)c2C1c1cccnc1` (stereo unspecified), with inactive: > 76.9 µM; and `O=C(Nc1ccc2ccccc2c1)N1CCN(c2ncccc2C(F)(F)F)CC1`, with inactive: > 76.9 µM.
With `O=C(c1ccco1)N1CCN(c2cc(C(F)(F)F)nc3ncnn23)CC1` the figure was inactive: > 76.9 µM; with `Cc1ccc(-n2c(=O)[nH]cc(C(=O)N3CCc4ccccc43)c2=O)cc1`, inactive: > 76.9 µM; with `CC1CCC2(CC1)NC(=O)N(Cc1nc(-c3ccccc3)no1)C2=O` (stereo unspecified), inactive: > 76.9 µM.
With `CCc1ccc(NC(=O)N(C2CCC(C)CC2)C2CCN(C(C)=O)CC2)cc1` (stereo unspecified), the Potency was inactive: > 76.9 µM.
On to `CCOC(=O)c1cc(NC(=O)N2CCCCC2)c(C)nc1C`, for which the Potency is inactive: > 76.9 µM.
As to `COCCCNC(=O)c1ccc2c(=O)n(C3CCCC3)c(=S)[nH]c2c1`, the Potency was inactive: > 76.9 µM.
With `CCCn1c(=O)c2c(nc(Br)n2CCC)n(C)c1=O`, the Potency is inactive: > 76.9 µM.
Then `Cc1cccc(C)c1NC(=O)CSc1nnc(-c2ccoc2C)n1CCc1ccccc1`, with inactive: > 76.9 µM.
For `Cc1cccc(Nc2nc(N)nc(CN3CCN(C)CC3)n2)c1`, the Potency is inactive: > 76.9 µM.
In the case of `OCc1ccnc2c(O)cccc12`, the Potency is inactive: > 76.9 µM.
`CCOC(=O)N1CCC(N(CCCOC)C(=O)Nc2ccc(CC)cc2)CC1`: the Potency is inactive: > 76.9 µM.
